Measurements published in a collection of fitness landscapes (doi:10.1016/j.celrep.2020.107928).
In all, about 81,000 sequences were measured (“one-hybrid fitness for binding parS DNA”: median about -0.17, highest 2% from about 0.51 on). The list shows a part of the results.

B1: Caulobacter ParB omega fusion; a variant is named by its letters at X, in order, B8GW30 (parent)
chain: MESVVVGEPGMSEGRRGLGRGLSALLGEVDAAPAQAPGEQLGGSREAPIEILQRNPDQPRRTFREEDLEDLSNSIREKGVLQPILVRPSPDTAGEYQIVAGERAWRAAQRAGLKTVPIMVRELDDLAVLEIGIIENVQRADLNVLEEALSYKVLMEKFERTQENIAQTIGKSXSHVANXMRLLXLPDEVQSYLVSGELTAXHARAIAAAADPVALAKQIIEGGLSVRETEALARKAPNLSAGKSKGGRPPRVKDTDTQALESDLSSVLGLDVSIDHRGSTGTLTITYATLEQLDDLCNRLTRGI

Variants of: B1
Experiment: one-hybrid fitness for binding parS DNA (scaled: cognate 1, non-cognate 0); higher = stronger binding
Conditions: with parS DNA site
Outline: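 On M9-minus-histidine containing 0.1 mM IPTG and 5 mM 3-AT, E. coli USO cells with a HIS3 reporter, site 19 bp from the promoter, grew 48 hours at 37°C to select Caulobacter ParB libraries randomised at four specificity codons. Plasmids from before and after were Illumina-sequenced, with three replicate libraries pooled and variants under 10 reads left out. Fitness is the log change in variant-to-wild-type read ratio, rescaled against cognate and non-cognate.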

Variant	one-hybrid fitness for binding parS DNA
AHKA	≤ 0.2
PKKG	≤ 0.2
VFAS	≤ 0.2
NGFG	≤ 0.2
QKKL	≤ 0.2
PNIN	≤ 0.2
RNDV	≤ 0.2
RPCY	≤ 0.2
SKVL	≤ 0.2
AKKC	≤ 0.2
REVF	≤ 0.2
RTDL	≤ 0.2
NQPN	≤ 0.2
MEKA	≤ 0.2
ASDN	≤ 0.2
LNWS	≤ 0.2
QRRA	≤ 0.2
DMFG	≤ 0.2
DLKS	≤ 0.2
ARTC	≤ 0.2
TSFC	≤ 0.2
RPGV	≤ 0.2
SICG	≤ 0.2
IEIS	≤ 0.2
MIYT	≤ 0.2

Variant	one-hybrid fitness for binding parS DNA
YLDY	≤ 0.2
HNVA	≤ 0.2
QLRH	≤ 0.2
SRYQ	≤ 0.2
HQNF	≤ 0.2
QRNW	≤ 0.2
IDNY	≤ 0.2
TYLC	≤ 0.2
RLHL	≤ 0.2
RGCQ	≤ 0.2
EMQL	≤ 0.2
CQNL	≤ 0.2
MQYS	≤ 0.2
PAKH	≤ 0.2
SWNC	≤ 0.2
QMKQ	≤ 0.2
MDDS	≤ 0.2
QKPM	≤ 0.2
GQGY	≤ 0.2
ECIL	≤ 0.2
NNSS	≤ 0.2
IPAS	≤ 0.2
RSWC	0.847
EGSL	≤ 0.2
SNMY	≤ 0.2

Variant	one-hybrid fitness for binding parS DNA
DLVA	≤ 0.2
ANLF	≤ 0.2
SEMD	≤ 0.2
PPKR	≤ 0.2
LVNA	≤ 0.2
GTQF	≤ 0.2
QQLG	≤ 0.2
IQCC	≤ 0.2
HHAM	≤ 0.2
NQNL	≤ 0.2
ALCT	≤ 0.2
HVNC	≤ 0.2
WADV	≤ 0.2
LHSC	≤ 0.2
DNKF	≤ 0.2
CLQW	≤ 0.2
RVYK	≤ 0.2
AHCL	≤ 0.2
PSHQ	≤ 0.2
ECAY	≤ 0.2
WRIG	≤ 0.2
LNTM	≤ 0.2
SGVL	≤ 0.2
PKMM	≤ 0.2
EPAG	≤ 0.2

Variant	one-hybrid fitness for binding parS DNA
QKGV	≤ 0.2
WESY	≤ 0.2
LDAA	≤ 0.2
CLLD	≤ 0.2
LPEA	≤ 0.2
MRRE	≤ 0.2
VRQT	≤ 0.2
ASAK	≤ 0.2
RVNC	0.947
SVCE	≤ 0.2
ENPQ	≤ 0.2
QIFV	≤ 0.2
EPGI	≤ 0.2
VPLI	≤ 0.2
PGNP	≤ 0.2
SMRF	≤ 0.2
IHKY	≤ 0.2
PPCE	≤ 0.2
HYQS	≤ 0.2
VEMR	≤ 0.2
RQPV	≤ 0.2
AHSN	≤ 0.2
VDCA	≤ 0.2
QEGF	≤ 0.2
RTEI	≤ 0.2

Variant	one-hybrid fitness for binding parS DNA
EVMS	≤ 0.2
ANRP	≤ 0.2
NHGT	≤ 0.2
MSAR	≤ 0.2
SEGR	≤ 0.2
LRKK	≤ 0.2
RYWC	0.887
QSGA	≤ 0.2
VNRD	≤ 0.2
PAMV	≤ 0.2
PWMW	≤ 0.2
VTRH	≤ 0.2
QLED	≤ 0.2
MYPM	≤ 0.2
DDTR	≤ 0.2
FVPC	≤ 0.2
CGYS	≤ 0.2
DPAK	≤ 0.2
FAGD	≤ 0.2
VNQW	≤ 0.2
DPQT	≤ 0.2
PAGW	≤ 0.2
SDNE	≤ 0.2
ALTV	≤ 0.2
RLLC	1

Variant	one-hybrid fitness for binding parS DNA
PWRN	≤ 0.2
AVSK	≤ 0.2
LFWP	≤ 0.2
AVQS	≤ 0.2
RDTS	≤ 0.2
HPSI	≤ 0.2
NNSV	≤ 0.2
MVLK	≤ 0.2
PWKW	≤ 0.2
KRYT	≤ 0.2
FLER	≤ 0.2
NWKW	≤ 0.2
LTAW	≤ 0.2
RPLM	≤ 0.2
DTNV	≤ 0.2
TAQC	≤ 0.2
TSIE	≤ 0.2
TSHA	≤ 0.2
DALC	≤ 0.2
FETG	≤ 0.2
QGRN	≤ 0.2
VVIM	≤ 0.2
ARMP	≤ 0.2
HLTF	≤ 0.2
GNTC	≤ 0.2

Variant	one-hybrid fitness for binding parS DNA
ARTN	≤ 0.2
KAVS	≤ 0.2
PVNA	≤ 0.2
RKCA	0.503
RPCM	≤ 0.2
WFRM	≤ 0.2
LWSW	≤ 0.2
PLKD	≤ 0.2
QRVA	≤ 0.2
NRLL	≤ 0.2
MLKT	≤ 0.2
PAYD	≤ 0.2
YVYL	≤ 0.2
DIRL	≤ 0.2
MRPD	≤ 0.2
KPLR	≤ 0.2
MQNK	≤ 0.2
TYNR	≤ 0.2
WAVR	≤ 0.2
LGPA	≤ 0.2
DCNM	≤ 0.2
SDPN	≤ 0.2
GMAE	≤ 0.2
FNNR	≤ 0.2
TRTE	≤ 0.2

Variant	one-hybrid fitness for binding parS DNA
PAEV	≤ 0.2
PRCD	≤ 0.2
RKGR	≤ 0.2
RMDI	≤ 0.2
GRNT	≤ 0.2
RGYK	≤ 0.2
HNSY	≤ 0.2
YAGM	≤ 0.2
NVKS	≤ 0.2
FSGF	≤ 0.2
RNAM	0.243
FGAS	≤ 0.2
GWSC	≤ 0.2
QLSG	≤ 0.2
STEC	≤ 0.2
ADQL	≤ 0.2
LQIT	≤ 0.2
DVAM	≤ 0.2
VGFG	≤ 0.2
CTPY	≤ 0.2
